The supplement of paper PMC10126150
Values marked as one replicate rest on one cluster of the flow cell; about a third of the high ones do not repeat.

Tested on: ATP
Experiment: switch fluorescence ratio, 500 uM ATP over buffer (Cy3 cluster intensity, sum of 5 cycles each) (fold (ratio)); higher = stronger signal-on switching upon ATP binding; sequences stand for … in TCGTCGGCAGCGTCAGATGTGTATAAGAGACAGTTTTTTTTTTTTTTTTTTTTTTTTT…TC
Settings: aptamer strand: ATP DNA aptamer (quencher-CACCTGGGGGAGTATTGCGGAGGAAGG + anchor), 100 nM annealed; ATP concentration: 500 uM; one replicate
Procedure, shortened: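 Five buffer/ATP imaging cycles were run on Cy3-labelled switching-strand clusters on a modified Illumina MiSeq flow-cell, with NaOH stripping and re-annealing between cycles. In each cycle, clusters annealed to 100 nM quencher-labelled ATP aptamer were imaged in selection buffer, then after 15 min with 500 uM ATP at 22 °C. Per cluster, the fluorescence ratio is summed target-cycle over summed buffer-cycle Cy3 intensity, averaged per switch-domain sequence. Only clusters within 100-1000 RFU were kept.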
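Further: ATP exposure 15 min at 22 °C before imaging.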

Sequence | switch fluorescence ratio
TAGGTGTAAG | 0.993
CGGTGTACCT | 1.05
GTCTTCAGCT | 0.987
GACACACCAT | 1.32
CGCTGAAGGT | 1.02
TCGTTCAGTG | 0.989
TCCAAATCCG | 1.05
TGCAAAACGC | 1
GGTCAACCGC | 1.07
GTCGACGAGC | 1.07
AGCGACGCCT | 0.993
CTGTACATTC | 1.04
TTTAAGTTTA | 0.998
TTTAGGTCGT | 1
ATTAGTATCT | 1.01
TAACATGCAG | 1.02
AGTTGAGGGT | 1.08
TATCCCAAGT | 0.992
CCGCTTGGGC | 2.85
ATGTATGGCC | 0.975
CTTTGAGGAT | 0.985
ACCCCCTATT | 2.87
GACTGTATTG | 0.977

Sequence | switch fluorescence ratio
CTTGGTTAAG | 0.951
ATGTTGTACC | 1.02
CAGGAATCCC | 1.04
CCGGCGAGTT | 1.08
CTCTACTTGG | 1.05
GAACAGCGAA | 1.02
GCGTTTCGCT | 0.993
GTGTGAACAG | 1.01
AGAGGGCGTA | 1.01
CTTTGGATAG | 0.971
GGATTCAAG | 0.964
AGGGCTAGCG | 1.04
TAGCAAGGCC | 1.15
TCGGCCTCCA | 1.31
AAGGTGTATT | 1.04
TCCGCTCTTG | 1.76
GACCACTGGA | 1.04
CGCTATAAAG | 1.04
CCCGAGGGGG | 0.981
AGATGAGACG | 1
TAAAGTCCCT | 1.06
TTTGTCCCGG | 1
TGGAAGCATA | 2.05

Sequence | switch fluorescence ratio
GCGGATAAGG | 0.938
AAAAAAGACC | 1.02
AAATGCCGTC | 0.975
TCCATGTCGC | 0.985
TCTATGTCGA | 0.97
CTGGCAGAT | 0.985
TCTCCTCAGT | 1.5
GCGTTAGTGA | 1
CTATAGGTGC | 1.18
GCAGAAAATA | 0.98
TTTGAGTCGA | 0.953
TTACAGCGAC | 1.18
AACTTCTGAG | 1.03
CAGGGGAGTT | 1.02
CGAGTTATTC | 1.03
TCTAACGGGA | 1.05
GGTTTCTTAA | 0.964
CCGTACATAT | 2.37
TTGTATGATG | 0.985
CCCGGTGTCA | 1.29
CAAAATGCGT | 1.02
ATCGTCAGCT | 0.974
TCTGAGGGAT | 0.992

Sequence | switch fluorescence ratio
GAATGAGTTA | 0.98
GTAGTAGTTT | 0.999
CCGAGTGAGG | 1.02
GCTACATCAC | 1.33
GTATTTGCCC | 1.01
AGGGTAGGAG | 0.989
CAGGGGCGAA | 1.02
CACGGAGCTC | 1.48
GCAAACGG | 1.05
TCATTGTCGG | 0.985
TTTGGATCAC | 1.01
CCCTTATGAC | 1.05
TAACGGGCTT | 0.981
TACGGTGTTG | 1.01
AGCTACGCGT | 1.01
ACGAGAGACA | 1.08
CCATATGCGG | 1.05
ATTTTAGCGG | 0.999
TAGACCTGGT | 1.02
GCAACTCCA | 1.41
ATATGATTG | 1.04
TGGACTAAGC | 1
AAACGAGTCG | 0.989

Sequence | switch fluorescence ratio
AGGTCTGTAG | 1.02
TTTAGTGTCA | 0.994
ATTCGTAGAT | 0.932
TGCTGATAGC | 0.994
AAATGTCCTT | 1.08
TGCGCTCCCA | 1.15
AGCTCTATCG | 1.03
CGCAGGGTGT | 1.24
TAAGTGACGC | 1.02
CACAGTTTGG | 0.913
AAGCAGGCTA | 1.06
TGGACTTGTT | 0.943
TACCGAACCG | 1.11
TGAAGCGGAG | 0.985
GGAAATGGCC | 0.988
TCTCAGTGAC | 1.09
TATTCTTATA | 0.969
TGTTGAGGG | 0.948
AATAACATTG | 0.982
GCTAGCTAAA | 0.949
AATTCACCTC | 1.05
TAGGACAT | 1.01
CAAATGGTAT | 0.989

Sequence | switch fluorescence ratio
TACCAGCATG | 1.02
ACCGTTATAG | 1.34
TGATACTAAC | 1.2
GGGTGGGTCT | 1.17
TCAAATGTAA | 1.01
CACTACTGCG | 1.05
GAGCGATCCT | 1.15
GAGCAGAGCT | 0.982
CGAAGATGCC | 1.01
CTAAGCGATT | 1.13
ACTATGGACC | 1.04
GGTTGGAAGC | 0.966
GCTTAGGATG | 1.04
TCAAGTTTAC | 0.996
TCCCTTGCCA | 1.05
AACGGATGGG | 0.97
GAGTCCGTGT | 1.01
CGGAATGGAA | 0.981
AACGTGATAT | 1.18
CTCATACAGG | 1.5
TCCGCATAGG | 3.85
GGATGAGTAA | 0.97
GATGCTCCTG | 1.02

Sequence | switch fluorescence ratio
TGTAGAGCCT | 1.02
GCAGCATATG | 1.22
CCGCGCGACG | 2.37
AGGACAGCTT | 1.01
TTAAAGCCGC | 1.19
CGAGGGGGCG | 1.11
AAATTTAGAA | 0.993
GCGATACAAG | 1.16
CATCTAGGGT | 1.02
CAATGCGG | 1.02
CCAATTAAGG | 0.971
TATTACTGGA | 1.18
CGGCTCGGCG | 0.951
CATGTGAAAC | 0.966
TAGAATCTCA | 0.968
GGCCTTGCTA | 1.03
GTCATTAGTA | 1
TCTTCTTACT | 1
GGACTGTATA | 1.11
